# The other results are listed elsewhere or left out.
# T1: UNK ZnF1-3 (human, UniProt Q9C0B0 31-174)
# T1 sequence: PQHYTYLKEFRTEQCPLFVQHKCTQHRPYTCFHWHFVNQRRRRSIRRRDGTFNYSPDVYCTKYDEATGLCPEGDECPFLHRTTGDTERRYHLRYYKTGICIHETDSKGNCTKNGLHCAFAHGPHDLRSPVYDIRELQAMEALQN
# B1: chr17:80560191:80560192:+_ENSG00000141568_ENST00000335255|hu_mus|FALSE|FALSE (ssRNA)
# RNA: GGGAGUUCUACAGUCCGACGAUCUUUACUAGAGUGGGAAAUUACGCCAAGGACAAAGUCUACAUAAAGAAACAAACAACAAACCCAGCAAGCUAGAGCAGGUACGUGCGUGCAGCCUGACGGCUGGAAGGCUCCCAGGGUCUCCAACAGAGGAUUGAGCAUCA
# B2: chr14:92628060:92628061:+_ENSG00000165934_ENST00000298875|hu_mus|motif|central (ssRNA)
# RNA: GGGAGUUCUACAGUCCGACGAUCUUGACAUCAUGUCCUUUACACAAUGGCAUACUGUUCAUAUAAAAGGUCUCGUAUCCGGUAAAAGUCUUGACAAAGGCAGCCUUCUAAUCCGAUGCGUCCAGUUUCUGUUCUGCGAACUGCCAACAGAGGAUUGAGCAUCA
# B3: chr2:42509997:42509998:+_ENSG00000143924_ENST00000318522|hu_mus|hu_hu_hu_mus_True|48_58 (ssRNA)
# RNA: GGGAGUUCUACAGUCCGACGAUCUCGCUGAGUCCUCUCCUCAUAAUUAAACAGGACUACCACUGAGGCGAUAAAAUAAACUAUUUUCCCGGUCGGAAGCAGGUAUACAUUCGCUCUACAGUCCUUUCCUCGAUAACCGUAUACCAACAGAGGAUUGAGCAUCA
# B4: chr17:57816259:57816260:+_ENSG00000062716_ENST00000262291|hu_hu|motif|central (ssRNA)
# RNA: GGGAGUUCUACAGUCCGACGAUCCAGAUAAAGCAGAAAGGUGUGCAGCCCUGUUCCAAGCCCAACAGAAGACAAAAUUCCGGAGCCGGUCCAGUAGGCAUACAAAAGAAACUGUUUCUCUAUACGUUGCACAUACUGUUGAUGCAACAGAGGAUUGAGCAUCA
# B5: chr1:39494564:39494565:+_ENSG00000168653_ENST00000372967|hu_hu|hu_hu_hu_mus_True|88_108 (ssRNA)
# RNA: GGGAGUUCUACAGUCCGACGAUCAUGUGCACGUCUCAUCGUUUUGUGCCGAAGCAAGCACUCUUCGAAGUCAUCGAACUCUAUCUUGCACUCCUUUUUCGCCCGGGUCCCACCGAUCCCGUGUGCACACUCUAUCCACUCUUUCAACAGAGGAUUGAGCAUCA
# B6: chr13:46067487:46067488:+_ENSG00000136152_ENST00000349995|hu_hu|motif|central (ssRNA)
# RNA: GGGAGUUCUACAGUCCGACGAUCGAUCAAUGGCCUGAAGACAUCAUACAAUGACACACACAGUUUCUCCAAAAGCUCAUCGGAUUUUGAUGUUGGUUUUGUGAAAAAUUCAUUGUAAAGUUGGUGUUCAUCCUGGCAGACAUGCAACAGAGGAUUGAGCAUCA
# B7: chr5:37294552:37294553:-_ENSG00000113569_ENST00000381843|hu_mus|FALSE|FALSE (ssRNA)
# RNA: GGGAGUUCUACAGUCCGACGAUCAUUCAUGGUCUGUAUCACAAACCCCACAUCCCAGUUUAAGGUACAAACUUGCUGCUCCAAGAACUGCACGAUAAAAUCCAGAGGGAAAAACCGAGGCGUCCCAGCAUAGAUUUUGCCGAGCAACAGAGGAUUGAGCAUCA
# B8: chr11:100882373:100882374:+_ENSMUSG00000019302_ENSMUST00000044721|mus_mus|mus_mus_mus_hu_True|48_48 (ssRNA)
# RNA: GGGAGUUCUACAGUCCGACGAUCUUCCUGGUUUGUGUUGAUUUCCUUCAGUUCAUUUUCAAUCUUCUCAAAAUUGGCCUCUAAGUCGAUCAUGUCCCGGGGGAAGGGAACCUCUGGGUUUUCACCGGUGUCCAUAAUCGGAAUCAACAGAGGAUUGAGCAUCA
# B9: chr16:1859243:1859244:-_ENSG00000063854_ENST00000397353|hu_hu|FALSE|FALSE (ssRNA)
# RNA: GGGAGUUCUACAGUCCGACGAUCAUCAAGACUGAAUUUCCCGCACGGACCAGCAGGAAAGCCAGUUACCUAAAAGAGCCUAAUCCCCAAAUCCGCUGAAGGUGCAGGGCGGCCUCAGUCCCGGGGCAUCUUGAACUGGUCCUUCAACAGAGGAUUGAGCAUCA
# B10: 27242051_27281840_773_CDS_ENSMUSG00000009621_ENSMUST00000056176|mouse|control|control (ssRNA)
# RNA: GGGAGUUCUACAGUCCGACGAUCCAGCUCACUGUUUCUUAGUCCAAAUUUGUCAUGGCAGACUUUGAGGAAGGUGCGAAUAUUCUUCAGACACAAGAACUGGGACAUCUGCGGCCGGAAGUUGAUGUCCUUAAGGUCGAUGGACAACAGAGGAUUGAGCAUCA
# B11: 124712484_124713586_393_CDS_ENSG00000119965_ENST00000481909|human|control|control (ssRNA)
# RNA: GGGAGUUCUACAGUCCGACGAUCGUAAAGGAAGCAGGGGUUUUCAUCUUUGUUGUUGUGGUUUCUCUUCAAAAUCACCAGAUCCUGACCUGGAGCAGGCGGUGCCAGCAGCUCCUCCCAGUCGAAGUCACCGGGGCCGAGACCCAACAGAGGAUUGAGCAUCA
# B12: chr2:26769575:26769576:-_ENSMUSG00000015790_ENSMUST00000167661|mus_hu|FALSE|FALSE (ssRNA)
# RNA: GGGAGUUCUACAGUCCGACGAUCUGGAUUGUUCUCAGGGACAAAAGGCUGCCUGGUUUCUGUCAGCCUCACCAUCCCAAUGAGGUCCACUUCUCCCUCAAUCUGGCCUUUCUGCCGGGUUUCAGGAUUCACUUUCUUCCUGGGCAACAGAGGAUUGAGCAUCA
# B13: chr4:153332861:153332862:-_ENSG00000109670_ENST00000281708|hu_hu|FALSE|FALSE (ssRNA)
# RNA: GGGAGUUCUACAGUCCGACGAUCCUCCUCUUGUUGUCUGAGUUGCUGUUGCUGUUCCUCCUCUACCACACGAUUCAUCUGUUCUUCAUCUACCUGGCUUGAGGAAGGGUUACCUCUCAGAGAGCCUCCAGUUCGUCGUCUUUUCAACAGAGGAUUGAGCAUCA
# B14: chr14:66974463:66974464:+_ENSMUSG00000022044_ENSMUST00000074523|mus_hu|mus_mus_mus_hu_False|1_108 (ssRNA)
# RNA: GGGAGUUCUACAGUCCGACGAUCUUGUAGGAUGAUUUAUUCAGGGGAUCGGCCAGGAAGCAGGAGCAGAACAAGGACACCAGCGGGAGCUCCUUCAUCUUCUCUUUGUAGGCAGCAAGGGUCAUGUUUCUGGGAUCCUGGUGGCAACAGAGGAUUGAGCAUCA
# Target: T1, UNK ZnF1-3
# Assay: nsRBNS (natural sequence RNA bind-n-seq); RBNS binding buffer (assumed for nsRBNS): 25 mM Tris pH 7.5, 150 mM KCl, 3 mM MgCl2, 0.01% Triton X-100, 500 ug/ml BSA, 20 U/ml SUPERase-In, 4 C; UNK is unkempt and MSI1 is Musashi-1; names of the RNAs are library labels; protein concentration not given here; high values mean tight binding
row,Binder,binding signal [enrichment R]
1,B1,1.16
2,B2,0.754
3,B3,1.29
4,B4,1.24
5,B5,0.59
6,B6,1.33
7,B7,0.977
8,B8,0.556
9,B9,0.999
10,B10,1.21
11,B11,0.739
12,B12,0.378
13,B13,0.378
14,B14,1.79

# — PMC12136788
